To fix the notation:
T1: RBFOX1 RRM (Homo sapiens, UniProt Q9NWB1 109-208)
T1 sequence: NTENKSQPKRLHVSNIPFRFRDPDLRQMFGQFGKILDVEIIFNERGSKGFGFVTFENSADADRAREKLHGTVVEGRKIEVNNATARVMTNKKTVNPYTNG

B1: GUCGCCG (DNA:RNA)
RNA: GGGAGACCGGAAUUCAGAUUGUCCGUCGCCGUUAAAUCCCGUCGUAGCCACCA
DNA 1: CAATCTGAATTCCGGTCTCCC
DNA 2: TGGTGGCTACGACGGGATT
B2: AGGGAAU (DNA:RNA)
RNA: B1 RNA with G25A, U26G, C27G, C29A, C30A, G31U
DNA 1: CAATCTGAATTCCGGTCTCCC
DNA 2: TGGTGGCTACGACGGGATT
B3: GCAAAGC (DNA:RNA)
RNA: B1 RNA with U26C, C27A, G28A, C29A, C30G, G31C
DNA 1: CAATCTGAATTCCGGTCTCCC
DNA 2: TGGTGGCTACGACGGGATT
B4: CGCUGUU (DNA:RNA)
RNA: B1 RNA with G25C, U26G, G28U, C29G, C30U, G31U
DNA 1: CAATCTGAATTCCGGTCTCCC
DNA 2: TGGTGGCTACGACGGGATT
B5: UUUUGAC (DNA:RNA)
RNA: B1 RNA with G25U, C27U, G28U, C29G, C30A, G31C
DNA 1: CAATCTGAATTCCGGTCTCCC
DNA 2: TGGTGGCTACGACGGGATT
B6: CGCUUUA (DNA:RNA)
RNA: B1 RNA with G25C, U26G, G28U, C29U, C30U, G31A
DNA 1: CAATCTGAATTCCGGTCTCCC
DNA 2: TGGTGGCTACGACGGGATT
B7: CAGCGUG (DNA:RNA)
RNA: B1 RNA with G25C, U26A, C27G, G28C, C29G, C30U
DNA 1: CAATCTGAATTCCGGTCTCCC
DNA 2: TGGTGGCTACGACGGGATT
B8: CUCCGCC (DNA:RNA)
RNA: B1 RNA with G25C, G28C, C29G, G31C
DNA 1: CAATCTGAATTCCGGTCTCCC
DNA 2: TGGTGGCTACGACGGGATT
B9: CCUCUUC (DNA:RNA)
RNA: GGGAGACCGGAAUUCAGAUUGUCCCCUCUUCUUAAAUCCCGUCGUAGCCACCA
DNA 1: CAATCTGAATTCCGGTCTCCC
DNA 2: TGGTGGCTACGACGGGATT
B10: UCAGCCG (DNA:RNA)
RNA: B1 RNA with G25U, U26C, C27A
DNA 1: CAATCTGAATTCCGGTCTCCC
DNA 2: TGGTGGCTACGACGGGATT
B11: AAUGCUG (DNA:RNA)
RNA: B1 RNA with G25A, U26A, C27U, C30U
DNA 1: CAATCTGAATTCCGGTCTCCC
DNA 2: TGGTGGCTACGACGGGATT
B12: GAAUGUG (DNA:RNA)
RNA: B1 RNA with U26A, C27A, G28U, C29G, C30U
DNA 1: CAATCTGAATTCCGGTCTCCC
DNA 2: TGGTGGCTACGACGGGATT
B13: AGAUUAU (DNA:RNA)
RNA: B9 RNA with C25A, C26G, U27A, C28U, U30A, C31U
DNA 1: CAATCTGAATTCCGGTCTCCC
DNA 2: TGGTGGCTACGACGGGATT
B14: GUGCAGC (DNA:RNA)
RNA: B9 RNA with C25G, C26U, U27G, U29A, U30G
DNA 1: CAATCTGAATTCCGGTCTCCC
DNA 2: TGGTGGCTACGACGGGATT
B15: AGUUCGA (DNA:RNA)
RNA: B9 RNA with C25A, C26G, C28U, U29C, U30G, C31A
DNA 1: CAATCTGAATTCCGGTCTCCC
DNA 2: TGGTGGCTACGACGGGATT
B16: GGGAUCC (DNA:RNA)
RNA: B9 RNA with C25G, C26G, U27G, C28A, U30C
DNA 1: CAATCTGAATTCCGGTCTCCC
DNA 2: TGGTGGCTACGACGGGATT
B17: GUUCCCG (DNA:RNA)
RNA: B1 RNA with C27U, G28C
DNA 1: CAATCTGAATTCCGGTCTCCC
DNA 2: TGGTGGCTACGACGGGATT
B18: UGCGUCG (DNA:RNA)
RNA: B1 RNA with G25U, U26G, C29U
DNA 1: CAATCTGAATTCCGGTCTCCC
DNA 2: TGGTGGCTACGACGGGATT
B19: UUGAAAU (DNA:RNA)
RNA: B1 RNA with G25U, C27G, G28A, C29A, C30A, G31U
DNA 1: CAATCTGAATTCCGGTCTCCC
DNA 2: TGGTGGCTACGACGGGATT
B20: CGCACAG (DNA:RNA)
RNA: B1 RNA with G25C, U26G, G28A, C30A
DNA 1: CAATCTGAATTCCGGTCTCCC
DNA 2: TGGTGGCTACGACGGGATT
B21: ACGAGCU (DNA:RNA)
RNA: B9 RNA with C25A, U27G, C28A, U29G, U30C, C31U
DNA 1: CAATCTGAATTCCGGTCTCCC
DNA 2: TGGTGGCTACGACGGGATT
B22: GAUAAAC (DNA:RNA)
RNA: B9 RNA with C25G, C26A, C28A, U29A, U30A
DNA 1: CAATCTGAATTCCGGTCTCCC
DNA 2: TGGTGGCTACGACGGGATT
B23: GUAAAAA (DNA:RNA)
RNA: B1 RNA with C27A, G28A, C29A, C30A, G31A
DNA 1: CAATCTGAATTCCGGTCTCCC
DNA 2: TGGTGGCTACGACGGGATT
B24: AACAAUA (DNA:RNA)
RNA: B9 RNA with C25A, C26A, U27C, C28A, U29A, C31A
DNA 1: CAATCTGAATTCCGGTCTCCC
DNA 2: TGGTGGCTACGACGGGATT
B25: GUGACGU (DNA:RNA)
RNA: B1 RNA with C27G, G28A, C30G, G31U
DNA 1: CAATCTGAATTCCGGTCTCCC
DNA 2: TGGTGGCTACGACGGGATT
B26: ACCCGCC (DNA:RNA)
RNA: B9 RNA with C25A, U27C, U29G, U30C
DNA 1: CAATCTGAATTCCGGTCTCCC
DNA 2: TGGTGGCTACGACGGGATT
B27: AAGCGCC (DNA:RNA)
RNA: B9 RNA with C25A, C26A, U27G, U29G, U30C
DNA 1: CAATCTGAATTCCGGTCTCCC
DNA 2: TGGTGGCTACGACGGGATT
B28: AUCACAU (DNA:RNA)
RNA: B1 RNA with G25A, G28A, C30A, G31U
DNA 1: CAATCTGAATTCCGGTCTCCC
DNA 2: TGGTGGCTACGACGGGATT
B29: CGAGAUG (DNA:RNA)
RNA: B9 RNA with C26G, U27A, C28G, U29A, C31G
DNA 1: CAATCTGAATTCCGGTCTCCC
DNA 2: TGGTGGCTACGACGGGATT
B30: UGGGUGU (DNA:RNA)
RNA: B9 RNA with C25U, C26G, U27G, C28G, U30G, C31U
DNA 1: CAATCTGAATTCCGGTCTCCC
DNA 2: TGGTGGCTACGACGGGATT
B31: AUGACCC (DNA:RNA)
RNA: B1 RNA with G25A, C27G, G28A, G31C
DNA 1: CAATCTGAATTCCGGTCTCCC
DNA 2: TGGTGGCTACGACGGGATT

Changes are numbered by the printed parent chain; changes in the protein carry UniProt numbers. The list shows a part of the results.

The assay has as its target T1, RBFOX1 RRM. Description: EMSA; HiTS-Eq, 1 nM pool, 10 min; buffer printed only for the single-RNA assays: 10 mM Tris pH 7.5, 150 mM NaCl, 3.4 mM EDTA, 0.001% NP-40, 30 C. The conditions noted are these: tags: His6 N-terminal (pET28a); label: 5' 32P. In short, it runs like this:
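Relative association constants, normalised to the cognate motif, were derived by comparing read counts of each RNA species with those of the control reaction. The RNA sequenced was the free fraction, separated by 8% native PAGE after a 10 min equilibration in 50 µL of 1 nM 5′-radiolabelled RNA (7 randomized nucleotides) with increasing concentrations of purified wild-type or mutant RbFox RRM.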
On to B1, for which the binding signal is 0.0192 KA relative to UGCAUGU.
In the case of B2 it was 0.0142 KA relative to UGCAUGU; in that of B3, 0.0111 KA relative to UGCAUGU.
Take B4: the binding signal was 0.0196 KA relative to UGCAUGU.
Take B5: the binding signal was 0.0195 KA relative to UGCAUGU.
For B6 the value was 0.00579 KA relative to UGCAUGU.
B7: the binding signal is 0.0182 KA relative to UGCAUGU.
For B8 the value was 0.00769 KA relative to UGCAUGU.
With B9, the binding signal was 0.00494 KA relative to UGCAUGU.
For B10, the binding signal is 0.00784 KA relative to UGCAUGU.
For B11, the binding signal is 0.0158 KA relative to UGCAUGU.
On to B12, for which the binding signal was 0.0295 KA relative to UGCAUGU.
For B13 the value was 0.00313 KA relative to UGCAUGU.
Regarding B14, the binding signal was 0.0143 KA relative to UGCAUGU.
For B15, the binding signal is 0.0151 KA relative to UGCAUGU.
Take B16: the binding signal was 0.0157 KA relative to UGCAUGU.
In the case of B17 it was 0.00442 KA relative to UGCAUGU; in that of B18, 0.0236 KA relative to UGCAUGU; in that of B19, 0.014 KA relative to UGCAUGU.
In the case of B20 it was 0.00812 KA relative to UGCAUGU; in that of B21, 0.00781 KA relative to UGCAUGU.
In the case of B22 it was 0.0037 KA relative to UGCAUGU; in that of B23, 0.0017 KA relative to UGCAUGU; in that of B24, 0.00117 KA relative to UGCAUGU.
For B25, the binding signal was 0.0144 KA relative to UGCAUGU.
For the molecule B26, the binding signal was 0.00445 KA relative to UGCAUGU.
With B27, the binding signal was 0.00794 KA relative to UGCAUGU.
For B28 the value was 0.000356 KA relative to UGCAUGU; for B29, 0.0158 KA relative to UGCAUGU; for B30, 0.0478 KA relative to UGCAUGU.
For B31, the binding signal is 0.0016 KA relative to UGCAUGU.

For the origin of these results see article PMC9911399, “Two distinct binding modes provide the RNA-binding protein RbFox with extraordinary sequence specificity”.
